Measurements reported in article PMC4336329 (PLoS ONE, 2015).
The campaign covered roughly 310,000 compounds. About 2,200 (0.71%) showed an effect of 50% or more. The effect is printed as a negative number. The list shows a part of the results.

target: human ether-à-go-go-related gene (hERG) potassium channel (human, UniProt Q12809); experiment: primary screen, population patch clamp on CHO cells stably expressing hERG
Sequence (Q12809 whole entry, looked up): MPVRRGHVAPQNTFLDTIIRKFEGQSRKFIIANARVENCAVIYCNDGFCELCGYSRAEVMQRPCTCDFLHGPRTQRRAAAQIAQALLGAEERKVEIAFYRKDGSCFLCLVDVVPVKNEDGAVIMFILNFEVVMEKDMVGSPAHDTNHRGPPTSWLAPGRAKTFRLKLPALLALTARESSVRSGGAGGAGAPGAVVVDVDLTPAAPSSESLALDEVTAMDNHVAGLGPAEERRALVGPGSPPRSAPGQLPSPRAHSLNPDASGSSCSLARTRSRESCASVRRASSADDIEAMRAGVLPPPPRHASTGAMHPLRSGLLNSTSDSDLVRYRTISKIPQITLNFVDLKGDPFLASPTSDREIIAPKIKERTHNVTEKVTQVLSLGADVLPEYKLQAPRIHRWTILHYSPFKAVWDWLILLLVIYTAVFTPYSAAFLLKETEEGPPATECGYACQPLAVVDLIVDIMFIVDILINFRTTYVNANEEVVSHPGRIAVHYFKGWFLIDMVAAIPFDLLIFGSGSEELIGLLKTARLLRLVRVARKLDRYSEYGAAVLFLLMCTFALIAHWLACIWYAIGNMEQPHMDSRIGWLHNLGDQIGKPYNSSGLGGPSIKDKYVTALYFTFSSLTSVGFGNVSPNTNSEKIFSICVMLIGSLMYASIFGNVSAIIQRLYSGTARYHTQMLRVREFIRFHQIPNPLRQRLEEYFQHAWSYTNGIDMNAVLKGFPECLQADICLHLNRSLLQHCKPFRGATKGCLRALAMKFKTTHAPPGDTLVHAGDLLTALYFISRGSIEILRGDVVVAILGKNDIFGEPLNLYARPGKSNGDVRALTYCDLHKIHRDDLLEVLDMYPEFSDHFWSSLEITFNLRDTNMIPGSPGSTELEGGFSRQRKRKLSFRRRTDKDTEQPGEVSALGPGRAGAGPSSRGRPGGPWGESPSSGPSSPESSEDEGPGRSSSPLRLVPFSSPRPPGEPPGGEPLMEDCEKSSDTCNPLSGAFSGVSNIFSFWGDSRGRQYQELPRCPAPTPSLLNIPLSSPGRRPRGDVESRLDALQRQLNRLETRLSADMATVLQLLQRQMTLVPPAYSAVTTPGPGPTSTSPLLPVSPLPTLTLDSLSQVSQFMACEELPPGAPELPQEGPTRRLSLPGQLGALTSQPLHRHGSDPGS

| SMILES | hERG current change (%, negative = inhibition) at 1uM [%] |
| --- | --- |
| Cc1cc(Cl)nc(-n2nc(C)cc2C)n1 | 9.18 |
| COc1cc2c(cc1OC)C(C)=NC1(CCCCC1)C2.O=C(O)c1ccccc1O | 5.69 |
| Cc1cccc(C)c1NC(=O)CN(C)C(=O)Cc1cccc(C(F)(F)F)c1 | 17.7 |
| Cc1cccc(NC(=O)C2CCN(C(=O)NCc3ccccc3)CC2)c1C | 5.28 |
| COc1cc(C2/C(=C(/O)c3ccc(F)cc3)C(=O)C(=O)N2CCCC(=O)O)ccc1O (stereo not drawn) | 13.5 |
| CC(C)(Oc1cccc2ccccc12)C(=O)O | 4.41 |
| COc1ccc(CCNC(=S)NC(=O)c2ccccc2)cc1OC | 8.62 |
| Cc1cc(NC(=O)c2cc(C3CC3)on2)n(-c2ccccc2)n1 | 5.83 |
| CCOc1cc(/C=C(/NC(C)=O)C(=O)O)cc(Cl)c1OCc1ccc(Br)cc1 | -1.81 |
| CCOC(=O)C1=NNC(C(=O)c2ccc(C)cc2)C1c1ccc(C)cc1 (stereo not drawn) | 7.94 |
| O=C(Nc1sc2c(c1C(=O)c1ccccc1)CCCC2)c1cccnc1 | 10.9 |
| O=C(O)C1c2ccccc2C(=O)N(Cc2ccc(F)cc2)C1c1ccncc1 (stereo not drawn) | 9.28 |
| Cc1cccc(-n2ccnc2SCC(=O)N2CCCc3ccccc32)c1C | -7.5 |
| O=C(C1CC(=O)N(c2ccc(F)cc2)C1)N1CCOCC1 (stereo not drawn) | 13.5 |
| Cc1cc2c(c(=O)o1)C(CCC1CCCCC1)C(C#N)=C(N)O2 (stereo not drawn) | 11.2 |
| Cc1cccc(OC(C)C(=O)N2CCc3ccccc3C2)c1 (stereo not drawn) | 11 |
| CC(=O)OCCNc1cc(Sc2nc3ccccc3[nH]2)c2nonc2c1[N+](=O)[O-] | 14.5 |
| COc1ccc(OC)c(-n2c(-c3cccc(S(=O)(=O)N(C)C)c3)n[nH]c2=S)c1 | 8.42 |
| O=C(C1=C(O)C(=O)N(Cc2ccco2)C1c1ccccc1)c1cccs1 (stereo not drawn) | 14.1 |

| SMILES | hERG current change (%, negative = inhibition) at 1uM [%] |
| --- | --- |
| CC(C)(C)NC(=O)COC(=O)CCC(=O)c1ccc(F)cc1 | 11.7 |
| CCC(C)(C)c1ccc(OCCCC[n+]2ccccc2)c(C(C)(C)CC)c1.[Br-] | -28.5 |
| CCC(C)NC(=O)CCNS(=O)(=O)c1ccc(Br)cc1 (stereo not drawn) | 4.07 |
| C=CCN1C(=O)/C(=C/c2ccc(Br)s2)C(=O)NC1=S | 2.47 |
| CC(C)(Oc1ccc(Cl)cc1)C(=O)N1CCN(C(=O)c2ccco2)CC1 | 9.34 |
| O=c1[nH]c(NCc2ccccc2)nc2c1CCCC2 | 5.5 |
| CCCCC1C(=O)N(c2ccccc2)N(c2ccc(O)cc2)C1=O (stereo not drawn) | 7.99 |
| Cc1cc(N2CCN(C)CC2)nc2ccc(NC(=S)NCCCN3CCc4ccccc4C3)cc12 | 1.96 |
| COc1ccccc1NS(=O)(=O)c1cccc(C(=O)N2CCN(C/C=C/c3ccccc3)CC2)c1 | 8.6 |
| Cc1ccc(C(=O)NCC(=O)N2CCC(Cc3ccccc3)CC2)cc1 | 2.08 |
| S=C(Nc1ccc(Nc2ccccc2)cc1)Nc1ccccn1 | 15.3 |
| CCOc1ccccc1OCCCC(=O)N(CC)CC(=O)Nc1ccc(NC(C)=O)cc1 | 11.6 |
| Cc1cccc(Nc2ncnc3nc[nH]c23)c1C | -9.96 |
| COc1ccc(C2C=C(C)Nc3ncnn32)cc1 (stereo not drawn) | 14.7 |
| COc1cc2ncnc(NCc3ccc(Cl)cc3)c2cc1OC | 3.84 |
| COc1ccc(C(=O)Nc2cccc(OC)c2)cc1 | 23.6 |
| COc1ccc(NC(=O)C2CCN(C(=O)c3ccc(OC)cc3)CC2)cc1 | -69.6 |
| Cc1nnc(SCC(=O)NC2CCS(=O)(=O)C2)n1-c1ccccc1 (stereo not drawn) | 9.38 |
| Cc1cccc(N2CCN(C(=O)c3ccncc3)CC2C)c1 (stereo not drawn) | 16.9 |

| SMILES | hERG current change (%, negative = inhibition) at 1uM [%] |
| --- | --- |
| Cc1cc(N2CCCC2=O)cc(C)c1CN1C(=O)c2ccccc2C1=O | 17 |
| Cc1ccnc(SCC(=O)N2CCN(c3cccc(Cl)c3)CC2)n1 | 1.16 |
| C=C/C(C)=C/C[C@H]1C(=C)CCC2[C@](C)(C(=O)O)CCC[C@@]21C (stereo partly drawn) | 9.73 |
| CC(C)c1ccc(NC(=O)C(c2ccc3c(c2)OCO3)N2CCC3(CC2)OCCO3)cc1 (stereo not drawn) | -0.174 |
| COc1ccc(NC(=O)CSc2nc3ccccc3cc2Cc2ccccc2)cc1 | 12.7 |
| CCCN1C2CCCC1CC(NC(=O)c1cc(OC)c(OC)c(OC)c1)C2 (stereo not drawn) | 11.8 |
| Cc1cc([N+](=O)[O-])nn1CCCC(=O)N1CCN(c2ccc(F)cc2)CC1 | -7.23 |
| O=C(CNC(=O)c1nc[nH]c1C(=O)N1CC[NH2+]CC1)OCc1ccccc1.[Cl-] | 2.75 |
| COc1cc([N+](=O)[O-])ccc1NC(=O)Cc1ccc(C)cc1 | 11.7 |
| O=C(NCCc1ccccc1Cl)C1CCN(S(=O)(=O)c2cccs2)CC1 | 0.833 |
| O=C(CSc1ccccc1)NCCc1ccccc1 | 12.8 |
| Cc1ccc(S(=O)(=O)N2[C@@H](c3ccccc3)C(C(=O)O)=CC[C@H]2c2cccs2)cc1 | 12.9 |
| Cc1ccc(N2CCN(c3ccc(C)cc3)C2c2ccncc2)cc1 | -0.287 |
| O=C(CC1C(=O)NCCN1Cc1c(F)cccc1Cl)NC1CCCCCC1 (stereo not drawn) | 3.77 |
| CCOC(=O)CCNC(C(=O)OCC)c1ccccc1 (stereo not drawn) | 2.69 |
| COc1ccc(C(=O)Nc2ccc(C3(C#N)CCCC3)cc2)cc1 | 12.2 |
| COc1cc2c(cc1OC)C(C(=O)N1CCCCC1)C(c1ccccc1F)N(C)C2=O (stereo not drawn) | 13.3 |
| O=C1CCC([N+](=O)[O-])C(c2cc(Br)ccc2F)N1 (stereo not drawn) | 14.5 |
| N#Cc1c(Cc2cccc3ccccc23)nn(CCO)c1N | 11.8 |
